Source: PubChem BioAssay AID463173 (ICCB-Longwood Screening Facility, Harvard Medical School, 2010)
Screen size: about 52,000 compounds; about 1,700 (3.3%) were called active. No stated cut-off is given here; in the data, active means survival mostly below about 52% (no sharp cut-off); inactive means mostly above about 56%. Some of the results follow.

system: Wild type; assay: growth inhibition of S. aureus wild type versus tarO mutant, primary screen, teichoic acid synthesis inhibitors, RN4220, OD600 (AID 463173); conditions: S. aureus RN4220 wild type/DeltatarO growth, OD600, 18 h, active compounds read low, screened at 18.75 µg/mL (by protocol)

Compound	survival
COc1ccc(C(=O)Oc2cc(-c3ccc(OC)c(OC)c3)cc(=O)c3c(C)oc(C)c23)cc1	inactive: 87%
CCS(=O)(=O)Nc1ccc(-c2cn3c(C)csc3n2)cc1	inactive: 78%
COc1ccc2[nH]c(=O)c(C(c3nnnn3Cc3ccccc3)N(C)C3CCCCC3)cc2c1 (stereo not drawn)	inactive: 108%
COc1cccc(C(c2sc3nc(-c4ccco4)nn3c2O)N2CCN(C)CC2)c1 (stereo not drawn)	inactive: 78%
COc1ccc(CNC(=O)CN(C)S(=O)(=O)c2ccc3c(c2)c(=O)n(C)c(=O)n3C)cc1	inactive: 164%
COc1ccc(CNC(=O)c2cccn2-c2nnc(N3CCCCC3)s2)c(OC)c1	active: -2%
O=C(NCc1cccnc1)c1c(O)c2cccc3c2n(c1=O)CC3	inactive: 104%
CC(C)c1ccccc1NC(=O)Cn1cnc2c1c(=O)n(C)c(=O)n2C	inactive: 93%
COc1ccc(-c2cc(C(=O)NCCc3ccccc3)c3c(-c4ccc(Cl)cc4)[nH]nc3n2)cc1	inactive: 66%
COc1ccc(CCNC(=O)CS(=O)(=O)Cc2nc(-c3cccc(Cl)c3)oc2C)cc1OC	inactive: 70%
CCCNC(=O)c1c(NC(=O)c2ccccc2)sc2c1CCC(C(C)(C)C)C2 (stereo not drawn)	active: 2%
Cc1cccc(N2C(=O)N(Cc3cccc(C#N)c3)c3ccccc3S2(=O)=O)c1	inactive: 79%
Cc1ccc(CSc2nc3ccncc3n2Cc2nc(-c3ccccc3C)oc2C)cc1	active: 0%
O=C(CCS(=O)(=O)c1cc(Br)cc2c1N(C(=O)C1CC1)CC2)N1CCN(c2cccc(C(F)(F)F)c2)CC1	inactive: 90%
O=C(Cn1c(=O)n(Cc2ccc(C(=O)NCc3ccc4c(c3)OCO4)cc2)c(=O)c2ccccc21)Nc1ccccc1F	inactive: 91%
COc1ccc(-n2ccn(CC(=O)Nc3ccc(C)cc3C)c(=O)c2=O)cc1	inactive: 85%
CCCc1nnc(NC(=O)C(CC)Sc2nnc3c4ccccc4n(C)c3n2)s1 (stereo not drawn)	inactive: 70%
COc1ccc(CNC(=O)c2sc3nc4n(c(=O)c3c2C)CCC4)cc1	inactive: 86%
CC(C)N(Cc1nc(-c2ccc(Cl)cc2)no1)C(=O)c1ccco1	inactive: 76%
COc1ccc2c(c1)c1c(c(=O)n(-c3cccc(C)c3)c(=O)n1CC(=O)NCc1ccc(C)cc1)n2C	inactive: 82%
COC(=O)c1cc(C)nc2c1c(=O)nc(SCc1ccccc1Cl)n2C1CC1	inactive: 83%
Cc1ccc(OCC(=O)Nc2ccc3nn(-c4ccc(C)cc4)nc3c2)cc1	inactive: 71%

Compound	survival
Cc1cccc(CCNC(=O)CCS(=O)(=O)c2cc3c(cc2C)NC(=O)CO3)c1	inactive: 90%
CCc1nnc2c(Nc3ccccc3Br)nc3ccccc3n12	inactive: 88%
CCc1cccc(NS(=O)(=O)c2ccc3c(c2)N(CC(=O)OC)C(=O)CS3)c1	inactive: 81%
COc1ccccc1N1CCN(C(=O)CNS(=O)(=O)c2ccc(Br)s2)CC1	inactive: 135%
CCOC(=O)N1CCC2(CC1)OC(=O)C(C)=C2C(=O)NCc1ccccc1OC	inactive: 71%
Cn1cnc(S(=O)(=O)N2CCC(C(=O)Nc3ccc(Cl)c(C(F)(F)F)c3)CC2)c1	inactive: 88%
Cc1nn(-c2ccccc2)c2sc(C(=O)N(CC(=O)NC3CCCC3)C3CC3)cc12	inactive: 110%
Cc1cc(Cl)ccc1OCC(=O)N(Cc1ccc(N(C)C)cc1)C1CCS(=O)(=O)C1 (stereo not drawn)	inactive: 73%
CCCn1cc(S(=O)(=O)c2cccc(Cl)c2)c(=O)c2cc(F)c(N3CCCC3)cc21	inactive: 59%
Cc1cccc(C(C)C)c1NC(=O)c1ccc2c(c1)CCCN2S(C)(=O)=O	inactive: 100%
Cc1ccc(NC(=O)CSc2nccn2C2CCCC2)cc1Cl	inactive: 125%
CC1(C)CC(=O)C(C(=O)/C=C/c2ccco2)C(=O)C1	inactive: 102%
CCOC(=O)c1cc(-c2ccc(C)cc2)n(CC(=O)Nc2ccc(OC)cc2OC)c1C	inactive: 92%
Cc1ccc(S(=O)(=O)CCC(=O)N2CCN(c3nc4c(C)c(C)ccc4s3)CC2)cc1	inactive: 79%
Cc1ccc(S(=O)(=O)N(CC(=O)NCCSc2ccc(Cl)cc2)c2cccc(Cl)c2)cc1	inactive: 129%
CCN1CCN(C(c2ccc(F)cc2)c2sc3nc(-c4ccco4)nn3c2O)CC1 (stereo not drawn)	inactive: 131%
CCC(C)NC(=O)c1cnn(-c2cccc(F)c2)c1-n1cccc1 (stereo not drawn)	inactive: 101%
CC(=O)N1CCCC1c1nc2ccccc2n1Cc1ccccc1F (stereo not drawn)	inactive: 85%
COc1ccc(N2CCN(C(c3ccc(F)cc3)c3sc4nc(-c5ccco5)nn4c3O)CC2)cc1 (stereo not drawn)	inactive: 78%
Cc1ccc(OCC(=O)Nc2nonc2-c2ccc(Br)cc2)cc1	inactive: 80%
CCc1cc(=O)[nH]c(SCc2nc(-c3ccc(C(F)(F)F)cc3)no2)n1	active: 0%
O=C(Nc1cccc2c1CCCC2)N1CCOc2ccc(Cl)cc21	inactive: 83%

Compound	survival
CC(C)OCCCNC(=O)CN1C(=O)c2ccccc2Sc2ncccc21	inactive: 94%
CCCC(=O)Nc1ccc2nc(SCC(=O)N3CCOCC3)sc2c1	inactive: 86%
CN1c2ccccc2N(C)C1c1cccs1	inactive: 120%
COc1ccc(C(=O)CSc2nccc(=O)[nH]2)cc1	inactive: 112%
Fc1ccc(N2CCN(c3ncnc4[nH]ncc34)CC2)cc1	inactive: 87%
Cc1oc2ncnc(N3CCOCC3)c2c1C(=O)NCc1ccc(Cl)cc1	inactive: 73%
N#C/C(=C\c1ccc(-c2cccc(Cl)c2)o1)C(=O)Nc1cccc(C(F)(F)F)c1	inactive: 133%
Cc1cc2ncn(S(=O)(=O)c3ccc(S(=O)(=O)N(C)C)cc3)c2cc1C	inactive: 104%
S=C1NCN(CCCn2ccnc2)CN1	inactive: 108%
CCc1nc2ccccc2n2c(-c3ccccc3)c3c(=O)n(C)c(=O)n(C)c3c12	inactive: 61%
COc1ccc(-n2c(=O)c3c4c(sc3n(Cc3ccc(C)cc3C)c2=O)CCC4)c(OC)c1	inactive: 78%
CCc1c(C)nc2nncn2c1Nc1ccc(Cl)cc1	inactive: 100%
CCOc1ccccc1NS(=O)(=O)c1ccc2c(c1)CC(C)N2C(=O)C1CC1 (stereo not drawn)	inactive: 77%
COc1ccc(OC)c(CNC(=O)Cn2ncc3c([nH]c4ccc(C)cc43)c2=O)c1	inactive: 69%
CCC(C(=O)Nc1ccc(C(C)=O)cc1)n1cnc2nc3c(cc2c1=O)CCCC3 (stereo not drawn)	inactive: 63%
COc1cc(C(CC(=O)NCc2ccccc2)N2Cc3ccccc3C2=O)cc(OC)c1OC (stereo not drawn)	inactive: 131%
Cc1cc(C)cc(NC(=O)CCc2nnc3n(C)c(=O)c4sccc4n23)c1	inactive: 72%
Cc1cc(C)n2nc(CNC(=O)c3ccccc3Cl)nc2n1	inactive: 121%
O=C(NCCc1csc(-c2ccc(F)cc2)n1)c1ccco1	inactive: 82%
CC1=C(C(=O)Nc2cc(Cl)ccc2C)C2(CCCCC2)OC1=O	inactive: 80%
CCOc1ccc(NC(=O)C2CCN(c3nc4ccccc4[nH]3)CC2)cc1	inactive: 124%
CCSc1ccc(C(=O)Nc2ccc(-c3nc4ccc(C)cc4s3)cc2)cc1	inactive: 118%

Compound	survival
COc1ccc2c(C)c(CCC(=O)NCc3ccc(C)cc3)c(=O)oc2c1	inactive: 79%
COC(=O)c1c(SC)nc2ccccc2c1OCc1ccccc1Cl	inactive: 82%
CC(C)(C)OC(=O)N1CCC(c2c(C(=O)NCCc3ccsc3)cnn2-c2ccccc2Cl)CC1	inactive: 73%
CCOc1ccc(N2C(=O)CS(=O)(=O)C23C(=O)N(Cc2cccc(Cl)c2)c2ccccc23)cc1 (stereo not drawn)	inactive: 68%
CCOc1ccc(CN2CCc3nc(N4CCN(c5ncccn5)CC4)ncc3C2)cc1OC	inactive: 78%
Cc1ccc(-c2c(C(=O)N3CCN(c4cccc(C)c4)C(C)C3)oc(=O)c3ccccc23)cc1 (stereo not drawn)	inactive: 80%
CCC(CC)C(=O)OCc1cc(=O)n2nc(C3CCCCC3)sc2n1	inactive: 63%
COC(=O)C1=C(C)N=C2SCCC(=O)N2C1c1ccc(OCc2ccccc2)c(OC)c1 (stereo not drawn)	inactive: 85%
CCOC(=O)c1c(C)[nH]c(C)c1S(=O)(=O)N(C)CC(=O)N1CCN(c2ccc(Cl)cc2)CC1	inactive: 92%
CCOC(=O)C(=O)NCC(c1cccnc1)N1CCN(c2ccccc2)CC1 (stereo not drawn)	inactive: 85%
CCOC(=O)CC(NC(=O)c1cc2cc(Br)cc(OC)c2oc1=O)c1ccc(OC)cc1 (stereo not drawn)	inactive: 77%
CC(C)(C)OC(=O)N1CCC(c2c(C(=O)Nc3ccc4c(c3)OCCO4)cnn2-c2ccc(F)cc2F)CC1	inactive: 64%
Cn1cnc2c(=O)oc3ccc(S(=O)(=O)N4CCN(c5cccc(C(F)(F)F)c5)CC4)cc3c21	inactive: 120%
COc1ccc(N2CC(NC(=O)COc3ccc(F)cc3)CC2=O)cc1OC (stereo not drawn)	inactive: 68%
COc1ccc(S(=O)(=O)NCCc2nnc3ccc(SCC(=O)Nc4cc(C)cc(C)c4)nn23)cc1	inactive: 92%
CCC1CN(C(=O)NCc2ccccc2)c2cc(Cl)ccc2O1 (stereo not drawn)	inactive: 89%
O=C(Nc1cccc(OCc2cc(=O)n3ccccc3n2)c1)c1ccccc1Br	inactive: 75%
CCOC(=O)c1ccc(NC(=O)CSc2ccc(-c3ccccn3)nn2)cc1	inactive: 90%
CCN(CC)c1cc(C)c2cc(NC(=O)c3ccccc3Cl)ccc2n1	inactive: 83%
Cc1ccc(-c2nc3c(c(SCC(=O)N(C)c4ccccc4)n2)Cc2c(CO)cnc(C)c2O3)cc1	inactive: 94%
Cn1c(=O)n(C)c2cc(N3CCOCC3)c(NC(=O)c3ccc(Cl)cc3)cc21	inactive: 84%
Cc1cc(C)c(S(=O)(=O)NCC(=O)N2CCc3ccccc3C2)c(C)c1	inactive: 87%
